Among all 110,000 compounds or so, about 230 (0.21%) showed an effect of 50% or more. The list shows a part of the results.
target: DPAP1 (Plasmodium falciparum, UniProt Q8IIJ9); assay: primary screen, percent inhibition; read by cleavage of a fluorogenic dipeptide substrate; higher = more effect of the substance; design: species or system P. falciparum D10 trophozoite lysates; single well
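Further: 30 min substrate incubation versus DMSO and 10 µM JCP410 controls.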

Chain of DPAP1 (Q8IIJ9 whole entry, looked up): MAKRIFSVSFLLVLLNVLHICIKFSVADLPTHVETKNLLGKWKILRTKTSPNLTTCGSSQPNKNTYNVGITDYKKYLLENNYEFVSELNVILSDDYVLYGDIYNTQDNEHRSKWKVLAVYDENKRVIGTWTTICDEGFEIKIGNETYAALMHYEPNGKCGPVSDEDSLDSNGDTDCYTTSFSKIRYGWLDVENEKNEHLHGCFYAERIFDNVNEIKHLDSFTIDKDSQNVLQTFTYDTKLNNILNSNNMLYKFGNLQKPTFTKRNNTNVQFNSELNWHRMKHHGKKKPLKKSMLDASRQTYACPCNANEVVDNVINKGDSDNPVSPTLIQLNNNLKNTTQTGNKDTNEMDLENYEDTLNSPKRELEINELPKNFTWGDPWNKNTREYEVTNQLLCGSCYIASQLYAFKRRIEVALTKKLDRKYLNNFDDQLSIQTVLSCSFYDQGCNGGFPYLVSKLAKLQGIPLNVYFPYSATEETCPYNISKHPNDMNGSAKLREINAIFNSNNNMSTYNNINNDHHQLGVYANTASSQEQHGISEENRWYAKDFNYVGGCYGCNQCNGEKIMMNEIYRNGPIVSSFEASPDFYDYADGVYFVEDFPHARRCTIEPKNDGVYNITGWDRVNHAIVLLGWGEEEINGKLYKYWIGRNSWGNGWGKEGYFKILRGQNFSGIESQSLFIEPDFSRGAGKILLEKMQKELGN

Row | SMILES | % Inhibition @ 10 uM [%]
1 | CCc1ccc(-c2nc(CSCC(=O)NCCc3ccc(OC)c(OC)c3)c(C)o2)cc1 | 0.689
2 | O=C1Sc2ccccc2C1=O | -1.99
3 | CCCCNC(=O)c1nn2c(c1Cl)NC(c1ccccc1)CC2C(F)(F)F (centres unmarked) | -0.142
4 | CCOc1ccc(-c2nc(O)c3c(n2)Oc2ccc(C(=O)OC)cc2C3)cc1 | 3.92
5 | C=CCN1C(=O)C(CC(=O)Nc2ccc(C)cc2C)S/C1=N\c1ccc(C(C)=O)cc1 (centres unmarked) | -5.67
6 | Cc1cccc(-n2nc(C)c3c(C)cc(=O)oc32)c1 | -6.94
7 | CCCCOc1ccc(S(=O)(=O)N2CCN(C)CC2)cc1 | 1.88
8 | Cc1nn(-c2ccccc2)c2c1C(c1ccc(Br)s1)C(C#N)=C(N)O2 (centres unmarked) | -7.34
9 | COc1ccc(C)cc1N(CC(=O)N1CCCCCC1)S(=O)(=O)c1ccccc1 | 5.39
10 | CS(=O)(=O)N(CC(=O)N1CCN(c2ccccc2)CC1)c1ccccc1Br | 2.43
11 | CC1CCCN(C(=O)c2nc(-c3ccc(Cl)cc3)n3c2CCCCC3)C1 (centres unmarked) | 5.92
12 | O=c1c2c3c(sc2n2c(S)nnc2n1-c1ccccc1)CCCC3 | 1.04
13 | N#CCNC(=O)[C@H](Cc1ccc(Cl)cc1Cl)NC(=O)OCc1ccccc1 | 1.35
14 | CCO/C(O)=C1\C(C)=NC(=S)NC1c1cn(-c2ccccc2)nc1-c1ccc(OC)cc1 (centres unmarked) | -3.75
15 | O=S1(=O)CCC(S(=O)(=O)N2CCOCC2)C1 (centres unmarked) | 0.937
16 | CC(=O)C1=C(C)Nc2sc(C(N)=O)c(N)c2C1c1cccnc1 (centres unmarked) | -0.267
17 | CC(C)c1ncc(C(O)c2cccc3ccccc23)n1C (centres unmarked) | -0.67
18 | CN(c1nnc(NC(=O)NC2CCCC2)s1)C1CCCCC1 | -8.54
19 | Cc1cccc(Sc2ccncc2S(=O)(=O)NC(=O)c2ccc(Cl)cc2)c1 | -10.2
20 | CCCN(CCC)C(=O)c1cnn(-c2ccccc2Cl)c1NC(C)=O | -1.17
21 | CCOc1cc(CCn2cnc3c4cc(F)ccc4nc-3c2O)ccc1OC | 3.24
22 | COc1ccc(CCNc2nc3ccc(C(=O)c4ccccc4)cc3n3cnnc23)cc1OC | -4.66

Row | SMILES | % Inhibition @ 10 uM [%]
23 | Cc1ccc(OCC(=O)Nc2nn3c(C)nnc3s2)cc1C | -4.69
24 | CC(C)(C)NS(=O)(=O)c1ccc(Cc2ccc(S(=O)(=O)NC(C)(C)C)cc2)cc1 | 8.06
25 | COc1ccccc1-c1cc2nc(C)c(CCC(=O)NC(C)c3cccs3)c(C)n2n1 (centres unmarked) | 4.34
26 | O=C1c2ccccc2-c2nc3ccc([N+](=O)[O-])cc3nc21 | -2.78
27 | Cc1cc(C)c(C(=O)CC2(O)C(=O)N(C)c3ccccc32)c(C)c1 (centres unmarked) | 4.41
28 | CC(SC1=NN2CCCC(=O)N=C2S1)c1ccccc1 (centres unmarked) | 0.718
29 | CCOc1ccccc1C(=O)N1CCN(c2ncccn2)CC1 | 3.94
30 | Cc1c(-c2ccccc2)sc(N)c1C#N | 19.1
31 | CC(C)(C)c1ccc(C2CC(=O)C(/C=N/CCN3CCNCC3)=C(O)C2)cc1 (centres unmarked) | -1.33
32 | Cc1cc(C(=O)Nc2ccc3c(c2)OCCO3)c(C)o1 | 0.726
33 | O=C(NCCc1ccccc1)c1cc(-c2ccccc2)c(N2CCOCC2)s1 | -4.69
34 | O=C(CCc1nnc2n(Cc3ccccc3)c(=O)c3ccccc3n12)NCCCN1CCCC1=O | 0.981
35 | COc1cc(Br)c(/C=C2\SC(NC(C)=O)=NC2=O)cc1OC | 2.23
36 | CCCN1C(=O)c2cc(C(=O)NCc3cccs3)ccc2C1O (centres unmarked) | 0.195
37 | COc1ccc(CCc2nc(-c3ccc(-n4cccc4)cc3)no2)cc1 | -7.38
38 | CC(C)NC(=O)c1ccccc1NC(=O)CCc1ccccc1 | -2.66
39 | CC(=O)CC(CC(=O)O)c1ccccc1 (centres unmarked) | -1.74
40 | Cc1ccc(CNC(=O)CSc2nc3nc(C)cc(C)n3n2)cc1 | -2.14
41 | CCOc1ccc(C(=O)C2=C(O)C(=O)N(c3nccs3)C2c2cccc(Cl)c2)cc1 (centres unmarked) | -3.06
42 | CCOc1ccc(C2Oc3c(OCC)cccc3C3CC(c4ccco4)=NN32)cc1 (centres unmarked) | 9.35
43 | COC(=O)c1c(NC(=O)C2=CCN(S(=O)(=O)c3ccc(C)cc3)CC2)sc(C)c1C | -3.94
44 | COc1cccc(CN(C(=O)/C=C/c2ccc(C)cc2)C2CCS(=O)(=O)C2)c1 (centres unmarked) | 2.02

Row | SMILES | % Inhibition @ 10 uM [%]
45 | COc1ccc(Cn2c(C(=O)O)c(CNCc3ccc4c(c3)OCO4)c3ccc(OC)cc32)cc1 | 1.53
46 | CCOc1ccccc1NC(=O)c1cc(OC)cc(OC)c1 | 0.795
47 | O=C(c1cccc(F)c1F)N1CCOCC1 | -0.128
48 | CCOC(=O)N1CCN(C(=O)C2CCN(C(=O)c3cc(OC)cc(OC)c3)CC2)CC1 | 3.47
49 | CCOc1ccccc1NC(=O)CC(O)(C(F)(F)F)C(F)(F)F | -1.28
50 | COc1ccc(/N=c2\scc(-c3ccc4c(c3)OCO4)n2CCO)cc1 | -5.97
51 | Brc1ccc(CN2CCN(c3ccccc3)CC2)o1 | 3.01
52 | CCC1CCCCN1CCCNC(=O)c1cc2cc3cc(OC)ccc3nc2s1 (centres unmarked) | 1.22
53 | CCCCC/N=C/c1sc2ccc(OCC)cc2c1O | -4.13
54 | CC(C)c1nc2cc3sc(C(C)C)nc3cc2s1 | -4.78
55 | COc1cccc(OC)c1C(=O)N1CCC(C(=O)O)CC1 | -0.169
56 | COC(=O)C1=C(C)NC(=O)CC1c1ccccc1Br (centres unmarked) | 0.565
57 | CC(NC(=O)c1ccc(C(C)(C)C)cc1)C(=O)O (centres unmarked) | 3.46
58 | Cc1nc2cccnc2n1-c1ccc(C(=O)NCc2ccccc2)cc1 | 4.79
59 | Cc1ccc(OCCCCN2CCCC2)c(C)c1 | -2.12
60 | FC(F)(F)c1cccc(N2CCN(Cc3ccc(-c4ccccc4)cc3)CC2)c1 | -7.49
61 | COc1ccc2c(C)c(CCC(=O)N3CCCC3)c(=O)oc2c1 | 2.54
62 | Cc1nn2c3c(cnc2c1-c1ccc(Cl)cc1)C(=O)CC(c1ccco1)C3 (centres unmarked) | -4.78
63 | CCN(CC)C(=O)c1sc2nc3c(cc2c1N)CN(C(C)C)CC3 | 9.61
64 | Cc1cc2c(C)nc(-c3ccccc3)nc2o1 | -0.436
65 | CCCn1nc(Oc2nc(NCC)nc(NC(C)C)n2)ccc1=O | 2.56

— paper PMC6919601, “Identification of Plasmodium dipeptidyl aminopeptidase allosteric inhibitors by high throughput screening” (PLoS ONE, 2019)
